# Test results reported in PubChem BioAssay AID504466 (National Center for Advancing Translational Sciences (NCATS), 2011).
# In all, about 330,000 compounds went through this assay and about 4,200 (1.3%) were called active. Inconclusive results, whose numbers are uncertain, are shown with a selection of clear calls. The call rests on the fitted dose curve; in most records, active means well fitted activation curve with a large enough effect; inconclusive means small, poorly fitted or top-dose-only effect; inactive means no such curve, though single readings can be large or run the other way. Where the call is inconclusive, the potency comes from a doubtful curve fit.
# Experiment: qHTS screen for small molecules that induce genotoxicity in human embryonic kidney (HEK293T) cells expressing luciferase-tagged ELG1; further: nearly all actives have a fitted effect of over 60% in size; on activity change, positive = activation: % of control where 0% means no effect
# Details: HEK293T ELG1-luciferase reporter, luminescence, 16 h; series mostly up to 46 µM; activity change, positive = activation: at the top concentration
# Method in brief: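 Quantitative HTS format in 1536-well plates. HEK293T ELG1-luciferase reporter cells receive test compound and are incubated 16 hr at 37 °C, 5% CO2; ONE-Glo added, 30 min room temperature, then luminescence read.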
# Potency means the concentration at half of the fitted maximal effect; tags describe the fitted curve by direction and shape.
Compound,"activity change, positive = activation",Potency
CCc1ccc(NC(=O)CSc2nc3cc(C(=O)OC)ccc3c(=O)n2Cc2ccco2)cc1,inactive: 2.15%,–
Oc1ccccc1/C=N/N1CCN(c2ccccn2)CC1,–,"inconclusive: 14.6 µM [activator, partial curve]"
CC(C)CN1C(=O)c2ccc(C(=O)Nc3ccccc3C(=O)O)cc2C1=O,–,"inconclusive: 20.6 µM [activator, partial curve, poor fit]"
CNc1sc(C(=O)c2cccs2)c(N)c1-c1nc2ccccc2s1,–,"inconclusive: 7.31 µM [activator, partial curve]"
O=C(NNC(=O)c1ccccc1Cl)c1ccc2c(c1)OCCO2,–,"inconclusive: 4.61 µM [activator, single point]"
Cc1ccc(NC(=O)C2C3CCCCC32)cc1[N+](=O)[O-] (stereo not given),–,"inconclusive: 20.6 µM [activator, single point]"
CC(=O)c1sc(N/N=C\c2ccc(Br)cc2)nc1C,–,"inconclusive: 16.4 µM [activator, partial curve]"
CC(=O)Nc1ccc(S(=O)(=O)N/N=C/c2ccc(C)s2)cc1,–,"inconclusive: 23.1 µM [activator, single point]"
CCCOc1ccc(/C=N/n2nnnc2N)cc1OC,–,"inconclusive: 20.6 µM [activator, partial curve, poor fit]"
COC(=O)c1[nH]c2ccccc2c1NC(=O)CN1CCN(Cc2ccc3c(c2)OCO3)CC1,inactive: -9.71%,–
COc1ccccc1N1CCN(c2ccc3ccccc3n2)CC1,–,"inconclusive: 1.46 µM [activator, single point]"
CCOC(=O)C1CCN(C(=O)COC(=O)c2ccc3[nH]c4c(c3c2)CCCC4)CC1,–,"inconclusive: 29.1 µM [activator, single point]"
CC(C)c1ccc(/C=C/C(=O)Nc2nncs2)cc1,–,"inconclusive: 1.64 µM [activator, full curve]"
COc1cc(SC)ccc1C(=O)OCc1nc2ccsc2c(=O)[nH]1,–,"inconclusive: 29.1 µM [activator, single point]"
CCS(=O)(=O)Nc1ccc(C(=O)NCCSc2ccccc2)cc1,–,"inconclusive: 23.1 µM [activator, single point]"
Cc1nc2c(oc3ccccc32)c(=O)o1,–,"inconclusive: 14.6 µM [activator, partial curve]"
COc1ccc(-n2nnnc2-c2nc3ccccc3s2)cc1,–,active: 1.46 µM
O=C(Cc1ccccc1)N/N=C/c1ccc2c(c1)OCO2,–,"inconclusive: 11.6 µM [activator, partial curve, poor fit]"
O=C(CN1C(=O)c2cccnc2Oc2ccc(Cl)cc21)NCCCc1ccccc1,inactive: -11.8%,–
CCOC(=O)c1c(C)[nH]c(C(=O)Nc2ccc(C)c(Cl)c2)c1C,–,"inconclusive: 5.17 µM [activator, partial curve]"
O=[N+]([O-])c1cccc(NN=Nc2ccccc2)c1,–,"inconclusive: 20.6 µM [activator, single point]"
Cc1ccc(C)c(N(CC(=O)NC2CCCCC2)C(=O)CNC(=O)c2ccco2)c1,inactive: -22%,–
COc1cc(/C=C2\S/C(=N/S(=O)(=O)c3ccc(C)cc3)NC2=O)c([N+](=O)[O-])cc1OC,–,"inconclusive: 25.9 µM [activator, partial curve, poor fit]"
CN1CCN(Cc2ccc(-c3ccc(Cl)cc3)o2)CC1,–,"inconclusive: 22.4 µM [activator, single point]"

Compound,"activity change, positive = activation",Potency
O=C(Nc1ccc(CN2CCOCC2)cc1)c1ccc2ccccc2c1,–,"inconclusive: 0.651 µM [activator, partial curve, poor fit]"
O=c1c2ccccc2nc2ccc(NCc3cccs3)nn12,inactive: -20.1%,–
COC(=O)C1CCCCN1C(=O)c1ccc2oc(Cc3ccccc3)nc2c1 (stereo not given),–,"inconclusive: 7.3 µM [activator, partial curve, poor fit]"
O=C(NNC(=O)C12CC3CC(CC(C3)C1)C2)c1ccccn1,–,"inconclusive: 20.6 µM [activator, single point]"
Cc1ccc(C)c(NC(=O)CCc2ccc(C)o2)c1,inactive: -1.16%,–
CCSc1nnc(NC(=O)c2cccnc2)s1,–,"inconclusive: 16.4 µM [activator, partial curve]"
Cc1nn(CC(O)c2ccccc2)c(C)c1Br (stereo not given),–,"inconclusive: 23.1 µM [activator, partial curve, poor fit]"
CC(=O)c1c(C)[nH]c(C(=O)OCC(=O)NCc2cccs2)c1C,–,"inconclusive: 23.1 µM [activator, partial curve, poor fit]"
Cc1ccc(C)c2[nH]c(=O)c(CN(CCN3CCCC3)C(=O)Nc3cccc(Cl)c3)cc12,inactive: -6.55%,–
O=C(NC(=S)N1CCOCC1)c1cn(-c2ccccc2)nc1-c1ccc(F)cc1,inactive: -2.24%,–
CCCCCCC(=O)N(O)C1CC(=O)N(c2ccc(C)cc2)C1=O (stereo not given),–,"inconclusive: 29.1 µM [activator, single point]"
CCN(C(=O)c1ccco1)c1nnc(-c2ccc(OC)cc2)s1,–,"inconclusive: 10.3 µM [activator, partial curve]"
CCn1c(SCC(=O)Nc2ccc(C(C)=O)cc2)nc2ccccc21,–,active: 16.4 µM
CC(C)(C)c1nnc(NC(=O)c2ccc3c(c2)OCO3)s1,–,"inconclusive: 2.31 µM [activator, partial curve, poor fit]"
Cc1nc(-c2ccc(C(=O)Nc3cccc(Br)c3)cc2)cs1,–,"inconclusive: 2.31 µM [activator, partial curve]"
COc1ccc(COC(=O)C2=C(C)NC(=O)NC2c2cc(OC)ccc2OC)cc1 (stereo not given),–,"inconclusive: 32.6 µM [activator, partial curve, poor fit]"
COc1cccc(CNC(=O)C2CCC(CNc3nc(=S)[nH]c4ccccc34)CC2)c1 (stereo not given),–,"inconclusive: 35.5 µM [activator, single point]"
COc1ccccc1NC(=O)C(=O)Nc1ccccn1,–,"inconclusive: 3.26 µM [activator, partial curve, poor fit]"
O=C(NNC(=O)c1ccccc1O)c1ccco1,–,"inconclusive: 8.2 µM [activator, partial curve]"
Cc1ccccc1C(=O)O/N=C(\N)c1cccc([N+](=O)[O-])c1,–,"inconclusive: 5.8 µM [activator, full curve, poor fit]"
O=[N+]([O-])c1ccccc1N/N=C/c1cc2ccccc2nc1Cl,–,"inconclusive: 18.4 µM [activator, single point]"
O=C(COC(=O)/C=C/c1ccc(OC(F)F)cc1)Nc1cccc(S(=O)(=O)N2CCCC2)c1,inactive: 9.07%,–
O=C(Nc1nc2cc3c(cc2s1)OCCO3)c1cccs1,–,active: 0.411 µM
Fc1cccc(Cl)c1Cn1nnc(-c2ccc(N3CCOCC3)cc2)n1,–,"inconclusive: 20.6 µM [activator, single point]"

Compound,"activity change, positive = activation",Potency
CC1CCCCC12NC(=S)N(c1ccccc1)N2 (stereo not given),–,"inconclusive: 20.6 µM [activator, partial curve, poor fit]"
Cc1cc([N+](=O)[O-])nn1Cc1ccc(C(=O)N/N=C/c2ccc(O)cc2O)cc1,–,"inconclusive: 20.6 µM [activator, partial curve, poor fit]"
O=c1c2ccccc2[nH]c2ccccc12,inactive: 0.22%,–
S=c1[nH]c(-c2ccccc2)cn1/N=C/c1cccs1,inactive: -0.645%,–
NS(=O)(=O)c1cccc(NC(=O)c2ccc3nc[nH]c3c2)c1,inactive: -1.34%,–
Clc1ccc(SCc2cn3ccsc3n2)cc1,–,"inconclusive: 7.31 µM [activator, partial curve]"
c1ccc2[nH]c(NN=C3CCCCCC3)nc2c1,–,"inconclusive: 2.91 µM [activator, full curve]"
Cc1ccccc1C(=O)Nc1cccc(-c2cn3ccccc3n2)c1,inactive: -18.1%,–
Cc1cccc(NC(=O)c2cnc3n(c2=O)CCS3)c1,–,"inconclusive: 9.2 µM [activator, partial curve]"
CCCn1ncc2c(Nc3ccc(C)c(C)c3)ncnc21,–,"inconclusive: 11.6 µM [activator, partial curve, poor fit]"
Cc1ccc(NC(=O)c2ccc3c(c2)C(=O)N(c2cc(C)ccc2C)C3=O)nc1,–,"inconclusive: 18.3 µM [activator, single point]"
COc1ccc(-c2c(C(C)=O)c(C)nc3sc4c(=O)[nH]nnc4c23)cc1,inactive: 2.9%,–
CC(C)(C)C1CCc2c(sc(NC(=O)C3CCCO3)c2C(N)=O)C1 (stereo not given),inactive: 1.26%,–
O=C(Nc1nc2ccc(Cl)cc2s1)c1ccc(Br)o1,–,"inconclusive: 2.51 µM [activator, partial curve, poor fit]"
Cc1cccc2c(=O)c(-c3ccc4c(c3)OCO4)c(NC(=O)c3ccco3)oc12,inactive: -2.01%,–
Cc1cc(NC(=O)c2ccc(F)cc2)no1,–,"inconclusive: 20.6 µM [activator, single point]"
COc1ccc(CC(=O)N2CCC(c3ccccc3)C2)cc1 (stereo not given),–,"inconclusive: 20.6 µM [activator, partial curve, poor fit]"
COc1cccc(/C=C/C(=O)c2cccc([N+](=O)[O-])c2)c1,–,"inconclusive: 23.1 µM [activator, partial curve, poor fit]"
CNC(=O)Nc1ccccc1C(=O)Nc1ccccc1,inactive: 0.555%,–
Nc1c(N=Nc2ccccc2F)c(=O)[nH]n1-c1ccccc1,–,"inconclusive: 10.3 µM [activator, partial curve]"
O=S(=O)(Nc1cccc2cccnc12)c1ccccc1,–,"inconclusive: 22.4 µM [activator, single point]"
O=C(Nc1nccs1)C1Cc2ccccc2CN1S(=O)(=O)c1ccc(F)cc1 (stereo not given),–,"inconclusive: 5.8 µM [activator, partial curve, poor fit]"
